# Results published in PubChem BioAssay AID1347073 (National Center for Advancing Translational Sciences (NCATS), 2019).
# Among all 45,000 compounds or so, about 200 (0.44%) were called active. Another 7% or so got no clear call; they are omitted. Calls come from the whole dose curve; as a rule, active = well fitted activation curve with a large enough effect; inconclusive = small, poorly fitted or top-dose-only effect; inactive = no such curve, though single readings can be large or run the other way. The list shows a part of the results.
# Experiment: qHTS of TDP-43 Inhibitors: NCGC Sytravon Library Screen; note: 0% is about no effect; nearly all actives have a fitted effect of over 55% in size
# Settings: yeast TDP-43 toxicity rescue, BacTiter-Glo growth, 24 h; series mostly up to 46.1 µM; growth rescue (activation): at the top concentration
# In short: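 TDP-43-expressing yeast, pregrown in raffinose, seeded at OD600 0.02 in galactose medium with compound for 24 hr at 30 deg C. Growth read by BacTiter-Glo luminescence, so rescue of toxicity appears as activation.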
row,Compound,growth rescue (activation)
1,O=C(COC(=O)C(Cc1ccccc1)NC(=O)c1ccccc1)c1ccccc1 (configuration not stated),inactive: -1.83%
2,O=[N+]([O-])c1ccc(S(=O)(=O)CC(CN2CCCCC2)N2CCCCC2)cc1 (configuration not stated),inactive: 5.67%
3,Cc1c(Cl)cnn1CC(=O)NC1C(=O)N2C(C(=O)O)=C(CSc3nnnn3C)CSC12 (configuration not stated),inactive: -2.4%
4,COc1ccc(NC(=O)CN2CCC(NC(=O)c3ccco3)CC2)c([N+](=O)[O-])c1,inactive: 5.69%
5,O=C(NCCCN1CCOCC1)c1ccc([N+](=O)[O-])cc1[N+](=O)[O-],inactive: -1.41%
6,COC(=O)c1ccc(NC(=O)CN2CCN(CCO)CC2)cc1,inactive: 7.96%
7,Cc1cc(C)nc(Sc2nc(Nc3ccccc3)nc(Sc3nc(C)cc(C)n3)n2)n1,inactive: 14.6%
8,Cc1ccccc1NC(=O)c1ccc(S(=O)(=O)C(F)F)cc1,inactive: 17%
9,CCOC(=O)C(=CNc1cc(C)ccn1)C(=O)OCC,inactive: 21.2%
10,Cc1cccc(Nc2nnc(SCC(=O)NC(=O)Nc3ccc4c(c3)OCCO4)s2)c1,inactive: 8.5%
11,Cc1cc(C)c(S(=O)(=O)N2CCN(S(=O)(=O)N3CCC(C)CC3)CC2)c(C)c1,inactive: -1.94%
12,COCCCn1c(-c2cccc(Cl)c2)nc2c1c(=O)[nH]c(=O)n2Cc1ccccc1,inactive: -0.355%
13,Cc1cc(C)n(Cc2cc(C(=O)O)c3ccccc3n2)n1,inactive: 10.1%
14,CCc1cccc(NC(=S)N2CCC(c3ccccc3)C2)c1 (configuration not stated),inactive: -4.02%
15,COC(=O)c1ccccc1NC(=S)N(Cc1ccc2c(c1)OCO2)Cc1cc2cc(OC)ccc2[nH]c1=O,inactive: -1.4%
16,COc1ccc(N(CC(=O)N/N=C(\C)c2ccc(C)cc2)S(=O)(=O)c2ccccc2)cc1,inactive: 12.2%
17,O=C(O)CC/C(=N\Nc1ccc(S(=O)(=O)N2CCOCC2)cc1[N+](=O)[O-])c1cccs1,inactive: 21.9%
18,COc1ccccc1NC(=O)CN1CCN(CC(=O)Nc2ccc(F)cc2F)CC1,inactive: -18.3%
19,COc1ccc(NC(=O)C/C(C)=N/NC(=O)c2ccncc2)c([N+](=O)[O-])c1,inactive: -10%
20,COc1ccc(CNC(=O)C(C)N2CCN(c3ccc(C(C)=O)cc3)CC2)cc1 (configuration not stated),inactive: -20.5%
21,Cn1cccc1C(C#N)c1ncc(C(F)(F)F)cc1Cl (configuration not stated),inactive: 14.3%
22,Cc1nn(C(C)(C)C)c(OC(=O)c2ccc3c(c2)OCO3)c1Sc1ccccc1,inactive: 21.9%
23,CCc1ccc(NC(=O)CN(c2ccccc2)S(=O)(=O)N(C)C)cc1,inactive: -6.79%
24,COc1cc2[nH]c(C(=O)NCC3CCCO3)cc2c(OC)c1OC (configuration not stated),inactive: -1.88%
25,CCC(OC(=O)C(C)N1C(=O)C(=O)c2ccccc21)C(=O)Nc1ccccc1OC (configuration not stated),inactive: 7.36%
26,CS(=O)(=O)N(CC(=O)Nc1c(F)cccc1F)c1cccc([N+](=O)[O-])c1,inactive: 25.1%

row,Compound,growth rescue (activation)
1,CC(C)(C)CC(=O)Nc1ccc(S(=O)(=O)N2CCCC2)cc1,inactive: 10.2%
2,OCCN(Cc1ccccc1)Cc1ccccc1O,inactive: -4.76%
3,CCOC(=O)CC1C(C(=O)OCC)ON2OC(C(=O)OC)C(C(=O)OCC)C12 (configuration not stated),inactive: 19.4%
4,O=C1c2ccccc2C(=O)N1CCC(O)C[N+](=O)[O-] (configuration not stated),inactive: -3.96%
5,Cn1nc(C(C)(C)C)cc1C(=O)O,inactive: 7.49%
6,O=C(Cc1ccccc1F)NCC(=O)Nc1ccccc1Br,inactive: -1.4%
7,CCOc1ccc(NC(=O)c2ccc(S(=O)(=O)N3CCOCC3)cc2)cc1,inactive: -0.154%
8,N#Cc1ccccc1OCC(=O)NNC(=O)CCNC(=O)c1ccccc1,inactive: -6.17%
9,CCN(CC)CC(=O)Nc1ccc(Oc2ccc(NC(=O)CN(CC)CC)cc2)cc1,inactive: -8.11%
10,CCCn1c(SCC(=O)NCC)nc2sc3c(c2c1=O)CCC3,inactive: -2.9%
11,COc1ccc(Cc2nnc(N/N=C/c3ccc(N(C)C)cc3)[nH]c2=O)cc1OC,inactive: 19.2%
12,CC(C)NC(=O)C1CCN(C2CCN(C(=O)Cc3ccc4c(c3)OCO4)CC2)CC1,inactive: -11.2%
13,COc1ccc(/C=C2\NC(=O)C(C=NCc3ccccc3)=C2O)cc1,inactive: 13.1%
14,CCCCN(C)Cc1c(C(=O)N2CCc3ccccc3C2)nc2ccc(Cl)cn12,inactive: 14%
15,O=C(Oc1ccccc1)c1ccc2c(c1)C(=O)N(Cc1ccncc1)C2=O,inactive: 17.1%
16,CCS(=O)(=O)c1ccc2oc(Nc3ccccc3Cl)nc2c1,inactive: -27.7%
17,Cc1nn(CC(=O)NC(C)C)c(C)c1[N+](=O)[O-],inactive: 4.42%
18,O=C1NC(c2ccccc2)=C(c2ccc3ccccc3n2)C(c2ccccc2)N1 (configuration not stated),inactive: 7.07%
19,O=C(Nc1cccc(-c2nc3ccccc3[nH]2)c1)c1ccccn1,inactive: -12.2%
20,O=C(Cc1c(F)cccc1Cl)Nc1cc(S(=O)(=O)N2CCCCC2)ccc1N1CCOCC1,inactive: 2.86%
21,Cc1ccccc1NC(=O)c1nnn(-c2ccc3c(c2)OCCO3)c1N,inactive: 21.8%
22,CCC(=O)Nc1ccc(Cl)c(NC(=O)c2cccc(OC)c2)c1,inactive: 9.26%
23,CN(C)S(=O)(=O)c1ccc(-c2csc(N/N=C/c3ccco3)n2)cc1,inactive: 12.8%
24,Cc1ccc(NC(=S)NN2CCOCC2)c(C)c1,inactive: 11%
25,O=C1COc2ccc(C(=O)COC(=O)c3ccc(F)cc3Cl)cc2N1,inactive: 11.1%
26,COc1ccc(NC(=O)C2CCCN(C(=O)Nc3ccc(F)cc3)C2)cc1 (configuration not stated),inactive: 4.91%
